About 14,000 (4.5%) of roughly 310,000 compounds showed an effect of 50% or more. Effects have a minus sign here. This is one part of the list.
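Note: peak tail current of the secondary pulse compared with the same well before compound.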

human ether-à-go-go-related gene (hERG) potassium channel, sequence (Q12809 whole entry, looked up): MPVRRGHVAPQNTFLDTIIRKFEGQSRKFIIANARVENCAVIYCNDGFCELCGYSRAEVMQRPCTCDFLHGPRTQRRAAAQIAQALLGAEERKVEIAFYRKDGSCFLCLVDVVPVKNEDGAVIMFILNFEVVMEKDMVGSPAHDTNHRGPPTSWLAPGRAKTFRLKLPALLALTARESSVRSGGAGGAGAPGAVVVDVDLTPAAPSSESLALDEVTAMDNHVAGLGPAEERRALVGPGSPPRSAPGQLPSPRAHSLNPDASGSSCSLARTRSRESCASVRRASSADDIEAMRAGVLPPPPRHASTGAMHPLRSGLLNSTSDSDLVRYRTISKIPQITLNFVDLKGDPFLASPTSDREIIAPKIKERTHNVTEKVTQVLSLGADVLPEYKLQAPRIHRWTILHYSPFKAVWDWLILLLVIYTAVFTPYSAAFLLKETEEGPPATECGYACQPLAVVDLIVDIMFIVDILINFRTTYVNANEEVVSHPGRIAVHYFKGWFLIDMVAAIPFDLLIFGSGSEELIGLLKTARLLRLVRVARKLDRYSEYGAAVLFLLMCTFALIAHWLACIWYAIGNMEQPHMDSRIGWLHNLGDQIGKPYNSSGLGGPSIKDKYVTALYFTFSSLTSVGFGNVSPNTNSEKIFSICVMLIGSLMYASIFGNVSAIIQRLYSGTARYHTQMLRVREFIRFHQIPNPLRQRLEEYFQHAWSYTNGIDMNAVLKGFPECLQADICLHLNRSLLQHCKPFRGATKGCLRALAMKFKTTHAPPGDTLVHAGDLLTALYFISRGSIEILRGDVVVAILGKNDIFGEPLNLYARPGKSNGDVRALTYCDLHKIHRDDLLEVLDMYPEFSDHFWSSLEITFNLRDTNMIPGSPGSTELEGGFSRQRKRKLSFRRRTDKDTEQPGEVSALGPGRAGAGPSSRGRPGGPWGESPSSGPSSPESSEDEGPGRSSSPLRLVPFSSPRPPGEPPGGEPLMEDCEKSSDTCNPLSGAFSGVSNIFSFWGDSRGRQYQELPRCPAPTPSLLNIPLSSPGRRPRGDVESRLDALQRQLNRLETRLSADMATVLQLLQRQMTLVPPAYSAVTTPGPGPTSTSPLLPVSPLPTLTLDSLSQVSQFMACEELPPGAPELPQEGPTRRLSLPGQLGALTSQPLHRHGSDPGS

This assay addresses human ether-à-go-go-related gene (hERG) potassium channel (human, UniProt Q12809). The assay can be described thus: primary screen, population patch clamp on CHO cells stably expressing hERG.
For `Cc1ccc(S(=O)(=O)Nc2ccccc2C(=O)Nc2ccc(S(=O)(=O)Nc3nccc(C)n3)cc2)cc1`, the “hERG current change (%, negative = inhibition) at 10uM” value is recorded as 7.59%.

Regarding `CCN(CC)c1ccc(/C=N/NC(=S)NCc2ccc(OC)cc2)cc1`, the “hERG current change (%, negative = inhibition) at 10uM” value was determined as 20.3%.

Regarding `CCN(CC)c1ncnnc1-c1ccccc1`, the “hERG current change (%, negative = inhibition) at 10uM” value is given as 15.9%.

As to `Cc1ccccc1NCN1C(=O)C2CCC(C)(C1=O)C2(C)C` (centres unmarked), the “hERG current change (%, negative = inhibition) at 10uM” value is recorded as -0.978%.

Take `Cc1ccc(S(=O)(=O)NCCC(=O)OCC(=O)N2CCCC2=O)cc1C`: the “hERG current change (%, negative = inhibition) at 10uM” value is -2.15%.

As for `O=C1OC(c2ccccc2)=N/C1=C\C=C\c1ccco1`, the “hERG current change (%, negative = inhibition) at 10uM” value is 20.6%.

Turning to `c1nc(COc2nsnc2N2CCOCC2)cs1`, the “hERG current change (%, negative = inhibition) at 10uM” value was -4.15%.

Consider `S=c1[nH]nc(-c2cccs2)n1/N=C/c1cccs1`, for which the “hERG current change (%, negative = inhibition) at 10uM” value is reported as 19.4%.

Turning to `O=C(N[C@@H](Cc1ccccc1)C(=O)O)c1ccncc1.O=C(O)C(F)(F)F`, the “hERG current change (%, negative = inhibition) at 10uM” value is recorded as 8.25%.

Turning to `COc1ccc(C(C)(C)C)cc1NC(=O)c1cc(S(=O)(=O)N(C)C)ccc1N1CCCC1`, the “hERG current change (%, negative = inhibition) at 10uM” value is listed as -60%.

Consider `Nc1nnnn1/N=C/c1cc(Cl)ccc1O`, for which the “hERG current change (%, negative = inhibition) at 10uM” value is on record as 14.5%.

Consider `Cc1c(Cl)cccc1NC(=O)c1ccco1`, for which the “hERG current change (%, negative = inhibition) at 10uM” value was 13.5%.

`COc1ccc(CCNC(=O)CCn2c(SCC#N)nc3ccccc3c2=O)cc1OC`: the “hERG current change (%, negative = inhibition) at 10uM” value is listed as 4.34%.

For the compound `Cc1ccc(SCCN2CCC(C(C)(C)C)CCC2=O)cc1` (centres unmarked), the “hERG current change (%, negative = inhibition) at 10uM” value is on record as -15.6%.

With `Cc1c(-c2nc3ccccc3[nH]2)cnn1C`, the “hERG current change (%, negative = inhibition) at 10uM” value is on record as 25%.

`CCOc1cc(C(C(=O)NCC2CCCO2)N(C(=O)Cn2nnc3ccccc32)c2ccccc2C)ccc1O` (centres unmarked): the “hERG current change (%, negative = inhibition) at 10uM” value came to 24.6%.

On to `CCOC(=O)C(C)Sc1nnc2c3ccccc3n(C)c2n1` (centres unmarked), for which the “hERG current change (%, negative = inhibition) at 10uM” value is -9.97%.

Take `O=C(NC1CC1)c1ccc(Cl)c(S(=O)(=O)N2CCOCC2)c1`: the “hERG current change (%, negative = inhibition) at 10uM” value was -0.929%.

As to `O=C(CCCn1c(=S)[nH]c2cc3c(cc2c1=O)OCO3)N1CCc2ccccc2C1`, the “hERG current change (%, negative = inhibition) at 10uM” value was determined as 0.586%.

For the compound `Cc1cccc(/C=C/c2onc(C)c2S(=O)(=O)N2CCC(C(=O)NC(C)C)CC2)c1`, the “hERG current change (%, negative = inhibition) at 10uM” value is given as -11.3%.

With `COc1cc(C2C(C#N)=C(N)Oc3c2c(-c2ccccc2)nn3-c2ccccc2)cc(OC)c1OC` (centres unmarked), the “hERG current change (%, negative = inhibition) at 10uM” value is -65%.

For the compound `O=C1NN(c2ccc(F)c(Cl)c2)C(=O)/C1=C\c1cccc(OC(=O)c2cccs2)c1`, the “hERG current change (%, negative = inhibition) at 10uM” value turned out to be 4.41%.

Turning to `CN1CCN(NC(=O)/C=C/c2cccc(Cl)c2)CC1`, the “hERG current change (%, negative = inhibition) at 10uM” value is reported as -6.09%.

With `CCCCN(C(=O)C1CCCC1)c1c(N)n(CC(C)C)c(=O)[nH]c1=O`, the “hERG current change (%, negative = inhibition) at 10uM” value is reported as 5.99%.

For `CCCCc1nc(NCc2ccccc2)c(C#N)c2c1COC(C)(C)C2`, the “hERG current change (%, negative = inhibition) at 10uM” value came to 12.9%.

On to `Cc1nn(CC(=O)N(C)C)c(=O)c2ccccc12`, for which the “hERG current change (%, negative = inhibition) at 10uM” value was determined as 17.2%.

In the case of `Cc1ccc(CNC(=O)CCS(=O)(=O)c2ccc3c(c2)NC(=O)C(C)S3)cc1` (centres unmarked), the “hERG current change (%, negative = inhibition) at 10uM” value was found to be 9.44%.

Turning to `COc1ccc(-c2cc(-c3ccc(Cl)cc3)n[nH]2)c(O)c1`, the “hERG current change (%, negative = inhibition) at 10uM” value turned out to be 32.6%.

Consider `c1ccc2c(c1)Cc1cc3ccccc3nc1-2`, for which the “hERG current change (%, negative = inhibition) at 10uM” value is on record as 7.29%.

With `C=CCNC(=O)c1ccc2c(=O)n(CCCN3CCCC3=O)c(=S)[nH]c2c1`, the “hERG current change (%, negative = inhibition) at 10uM” value was -3.76%.

Turning to `COc1ccc(/C=C2/C(=O)C(C)(C(C)C)CCC2C)cc1` (centres unmarked), the “hERG current change (%, negative = inhibition) at 10uM” value amounted to 24.5%.

For the compound `COc1ccc2c(c1OC)C(=O)N1N=C(c3ccc(F)cc3)CC21` (centres unmarked), the “hERG current change (%, negative = inhibition) at 10uM” value is reported as -26.2%.

With `OC(CN1CCc2ccccc2C1)c1ccccc1` (centres unmarked), the “hERG current change (%, negative = inhibition) at 10uM” value was -9.09%.

As for `COc1ccc2c(CC#N)c[nH]c2c1`, the “hERG current change (%, negative = inhibition) at 10uM” value was 12.1%.

In the case of `CCOC(=O)c1ccc2c(c1)N(CC#N)C(=O)C(C)(C)O2`, the “hERG current change (%, negative = inhibition) at 10uM” value is on record as -4.65%.

In the case of `Nc1ccc2nc(-c3ccccc3)cnc2c1`, the “hERG current change (%, negative = inhibition) at 10uM” value came out at 2.1%.

As for `Cc1cccc(NC(=O)c2ccc(OCc3c(C)noc3C)cc2)n1`, the “hERG current change (%, negative = inhibition) at 10uM” value is on record as -16%.

For the compound `Cc1ccc(NC(=S)N2CCCN(Cc3ccc(F)cc3)C2)c(C)c1`, the “hERG current change (%, negative = inhibition) at 10uM” value is -31.1%.

For the compound `COc1cc(C2C3=C(Nc4nc(N)[nH]c(=O)c42)c2ccccc2C3=O)ccc1O` (centres unmarked), the “hERG current change (%, negative = inhibition) at 10uM” value is given as 10.6%.

For `COC(=O)C(C)N(C(=O)c1cccc2ccccc12)c1c(C)cccc1C` (centres unmarked), the “hERG current change (%, negative = inhibition) at 10uM” value is -20.2%.

As to `Cc1ccc(C(c2sc3ncnn3c2O)N2CCC(C)CC2)cc1` (centres unmarked), the “hERG current change (%, negative = inhibition) at 10uM” value is given as -4.02%.

As to `CCOc1cc(/C=C2/NC(=O)N(CC(=O)OC)C2=O)ccc1OC`, the “hERG current change (%, negative = inhibition) at 10uM” value is on record as 7.19%.

For `COCc1cc(=O)[nH]c2cc(NC(=O)C(C)(C)CCl)c(C)cc12`, the “hERG current change (%, negative = inhibition) at 10uM” value stood at 16.4%.

Consider `Cc1cccc(/N=C/c2sc3ccccc3c2O)n1`, for which the “hERG current change (%, negative = inhibition) at 10uM” value is given as 3.11%.

As for `CCOC(=O)C1CCN(C(=O)CSc2ccccc2)CC1`, the “hERG current change (%, negative = inhibition) at 10uM” value is -20.3%.

As for `COc1ccc(-n2nnc3c(SCC(=O)c4ccccc4)ncnc32)cc1`, the “hERG current change (%, negative = inhibition) at 10uM” value amounted to 6.54%.

As to `Cc1c(NC(=O)C(C)N2CC(C)OC(C)C2)c(=O)n(-c2ccccc2)n1C` (centres unmarked), the “hERG current change (%, negative = inhibition) at 10uM” value turned out to be 9.21%.

As to `COCCCNC(=O)CN(Cc1ccccc1)S(=O)(=O)c1ccccc1`, the “hERG current change (%, negative = inhibition) at 10uM” value is reported as -0.593%.

For the compound `CSc1nc2n(n1)C(c1cccs1)C1=C(CCCC1=O)N2` (centres unmarked), the “hERG current change (%, negative = inhibition) at 10uM” value was 4.33%.

`COCCCNCCOCCOc1ccc(C)cc1[N+](=O)[O-].O=C(O)C(=O)O`: the “hERG current change (%, negative = inhibition) at 10uM” value is listed as -26.8%.

Turning to `Cc1nc2cnccc2n1C`, the “hERG current change (%, negative = inhibition) at 10uM” value is 17.2%.

On to `CCOC(=O)N1CCN(Cc2nc3cc(NC(=O)CC)ccc3n2CC)CC1`, for which the “hERG current change (%, negative = inhibition) at 10uM” value was found to be 9.4%.

Regarding `Cc1cc(SCC(=O)OCC(=O)N(CCC#N)c2ccccc2)nc2ccccc12`, the “hERG current change (%, negative = inhibition) at 10uM” value is on record as -28.6%.

Turning to `CN(C(=O)COc1cc(=O)n(C)c2ccccc12)c1ccc(Cl)cc1`, the “hERG current change (%, negative = inhibition) at 10uM” value is recorded as -29.2%.

Consider `CCOC(=O)c1sc2nc(CN3CCCCC3)nc(Cl)c2c1C`, for which the “hERG current change (%, negative = inhibition) at 10uM” value came to 3.31%.

Take `COc1ccccc1N1CCN(C(=O)c2ccc3nc[nH]c3c2)CC1`: the “hERG current change (%, negative = inhibition) at 10uM” value was found to be 10.5%.

Turning to `CC(=O)C1C(c2ccc(O)cc2)NC(=O)NC1(O)C(F)(F)F` (centres unmarked), the “hERG current change (%, negative = inhibition) at 10uM” value amounted to 16.2%.

`CC(=O)Nc1ccc2c(c1)nc(CN1CCCC1)n2C`: the “hERG current change (%, negative = inhibition) at 10uM” value is listed as -7.28%.

With `COc1cccc(NC(=O)CSc2nc3ccccc3nc2N2CCOCC2)c1`, the “hERG current change (%, negative = inhibition) at 10uM” value is -0.0485%.

These data come from article PMC4336329 (PLoS ONE, 2015).
